# Test results published in PubChem BioAssay AID2546 (National Center for Advancing Translational Sciences (NCATS), 2010).
# In all, about 310,000 compounds went through this assay and about 11,000 (3.5%) were called active. The inconclusive results got no clear call from the source; some entries with a clear call stand among them for comparison. Calls come from the whole dose curve; as a rule, active = well fitted inhibition curve with a large enough effect; inconclusive = small, poorly fitted or top-dose-only effect, or effect the other way; inactive = flat fitted curve, though single readings scatter. Potencies of inconclusive entries are left out as doubtful fits.
# Experiment: VP16 counterscreen qHTS for inhibitors of ROR gamma transcriptional activity;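 note: Gal4-VP16 expression switched on by copper sulfate through the metallothionein promoter; nearly all actives have a fitted effect of over 50% in size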
# Settings: Drosophila S2 Gal4-VP16 UAS-luciferase, luminescence, 20 h; activity, negative = inhibition: at 53.6 µM (top of the series)
# % is set by controls: 0 for no effect and ±100 for the full control effect; potency is the fitted concentration of half-maximal effect; tags give direction and shape of the fitted curve.
Compound,"activity, negative = inhibition",Potency
CCCCNCC,inactive: -0.652%,
CC(C)=CCc1c(O)c(CC=C(C)C)c2occ(-c3ccc(O)cc3)c(=O)c2c1O,,"inconclusive [inhibitor, single point]"
COc1ccc(-n2c(-c3ccco3)n[nH]c2=S)cc1,,"inconclusive [inhibitor, single point]"
COc1ccc(/C=C/C(=O)NCCc2ccc(S(N)(=O)=O)cc2)cc1,inactive: -3.58%,
COc1nc(N)c(S(=O)(=O)c2ccccc2C)cc1C#N,,"inconclusive [activator, partial curve]"
c1ccc(C[n+]2cccc(-c3ccccc3)c2)cc1,,"inconclusive [inhibitor, partial curve]"
CCCc1cc(=O)[nH]c(N/N=C/C=C\c2ccccc2)n1,inactive: 3.55% [at 10 µM],
Cc1ccccc1Nc1c(-c2cccnc2)nc2cccc(C)n12,inactive: -13.1%,
C#C[C@]1(O)CC[C@@H]2[C@H]3CCc4cc(OC)ccc4[C@@H]3CC[C@@]21C,inactive: -1.55% [at 17 µM],
C=CCOc1c(Br)cc(CNc2ccc3[nH]c(=O)[nH]c3c2)cc1OCC,inactive: -8.63%,
CCn1c(SCC(=O)Nc2nc(-c3ccccc3)cs2)nc2c1c(=O)n(C)c(=O)n2C,,"inconclusive [inhibitor, full curve, poor fit]"
O=C(Nc1ccc(Cl)c(Cl)c1)c1ccc(Cn2cc(Cl)cn2)cc1,,"inconclusive [inhibitor, single point]"
CCOc1ccc(NC(=O)C(c2ccccn2)N(C(=O)CCl)c2ccc(OC)cc2)cc1 (stereo not drawn),,"inconclusive [inhibitor, single point]"
OCCCc1n[nH]c(=S)n1-c1ccccc1,inactive: -0.574%,
CCn1c(C)c(CS(=O)(=O)c2ccccc2)[nH]c1=O,,"inconclusive [inhibitor, single point]"
c1ccc(-c2noc(-c3ccco3)n2)nc1,,"inconclusive [inhibitor, partial curve]"
COc1ccc(-c2nc3ccccc3n2Cc2ccc(C)cc2)cc1,,"inconclusive [inhibitor, single point]"
NC(=O)NC(=O)COC(=O)c1ccc(Cl)c(S(=O)(=O)N(Cc2ccccc2)c2ccc(Cl)cc2)c1,,"inconclusive [inhibitor, single point]"
Cc1cccc(NC(=O)c2n[nH]c([N+](=O)[O-])c2Br)c1C,,"inconclusive [inhibitor, single point]"
CCCc1c(C(=O)N/N=C/c2ccc(C)s2)nnn1-c1nonc1N,,active: 2.82 µM
COc1ccc2oc(C(=O)C3CC3)c(N)c2c1,,"inconclusive [inhibitor, single point]"
O=Cc1cn(CCC(=O)O)nc1-c1cccc2ccccc12,,active: 11.2 µM
CCN1CCN(C(c2cccs2)C(C)NC(=S)Nc2cccc(C)c2C)CC1 (stereo not drawn),inactive: -3.17%,
Cc1ccc(NC(=O)C(=O)NCC2CCCO2)cc1 (stereo not drawn),inactive: -20.1%,
O=C(CC1S/C(=N/N=C/c2cccs2)NC1=O)Nc1ccc(Cl)c(Cl)c1 (stereo not drawn),,"inconclusive [inhibitor, single point]"

Compound,"activity, negative = inhibition",Potency
CC(C)CCNC(=O)C(=O)NCc1ccccc1,,"inconclusive [inhibitor, single point]"
COc1ccc(OC)c(/C=N/NC(=O)c2ccc(N(C)S(=O)(=O)c3ccccc3)cc2)c1,inactive: -5.01%,
CCOc1ccc(-c2nnc(NC(=O)Cc3cc(OC)c(OC)c(OC)c3)o2)cc1,,"inconclusive [inhibitor, single point]"
CCc1ccc(S(=O)(=O)/N=C2/C=C(Sc3ncn[nH]3)C(=O)c3ccccc32)cc1,,active: 6.31 µM
CS(=O)(=O)N(CC(=O)Nc1ccc(CC#N)cc1)c1ccc(C23CC4CC(CC(C4)C2)C3)cc1,,"inconclusive [inhibitor, single point]"
CCCCC(=O)Nc1ccc(C(=O)NNC(=S)NC(=O)c2ccccc2[N+](=O)[O-])cc1,inactive: -3.37%,
Cc1ccc(-c2csc(/C(C#N)=C(\O)CCl)n2)cc1,,"inconclusive [activator, single point]"
O=C(O)CC1CCC(=C(Cl)Cl)C1 (stereo not drawn),,"inconclusive [inhibitor, single point]"
COc1cccc(NC(=O)CN(C)CC(=O)Nc2ccc(C)cc2Cl)c1,inactive: -7.71%,
Cc1cc(C(C)(C)C)oc1C(=O)Nc1ccc(CC(=O)O)cc1,,"inconclusive [inhibitor, single point]"
CN(Cc1c(F)cccc1Cl)C(=O)c1cc2ccccc2o1,,"inconclusive [inhibitor, single point]"
COc1ccc(OC)c(C(=O)N2CCC(C(=O)c3ccc(F)cc3)CC2)c1,inactive: 6.02%,
CS(=O)(=O)N(Cc1ccc(C(=O)N2CCc3ccccc3C2)cc1)c1ccccc1,,"inconclusive [activator, single point]"
O=C(CCN1C(=O)/C(=C\C=C\c2ccccc2)SC1=S)Nc1ccc(C(=O)O)cc1,,"inconclusive [inhibitor, partial curve]"
CCc1nnc(NS(=O)(=O)c2ccc(NC(=S)NC(=O)c3ccc(F)cc3)cc2)s1,,"inconclusive [inhibitor, single point]"
CCC(CO)n1c(=S)[nH]c2cc(OC)c(OC)cc2c1=O (stereo not drawn),,"inconclusive [inhibitor, single point]"
CC(C)Cn1c(CCNC(=O)c2ccco2)nc2ccccc21,inactive: 5.48%,
COC(=O)c1ccc(NC(=O)COC(=O)C2CC(=O)N(Cc3ccccc3)C2)cc1 (stereo not drawn),inactive: 0.577%,
COC(=O)c1cc(NC2c3ccccc3C(=O)N2c2ccc(Cl)cn2)cc(C(=O)OC)c1 (stereo not drawn),,active: 11.2 µM
COc1cccc(C2CC(=O)Nc3cc(OC)c(OC)c(OC)c32)c1OC (stereo not drawn),inactive: 29.3%,
Cn1ncc([N+](=O)[O-])c1C(=O)Nc1nc2ccccc2n1CCN1CCCCC1,,"inconclusive [inhibitor, single point]"
CCOC(=O)Cc1c(C)nc2c(-c3ccccc3)c(-c3ccccc3)[nH]n2c1=O,,"inconclusive [inhibitor, single point]"
Cc1ccc(N2Cc3ccccc3C2=O)cc1,,"inconclusive [inhibitor, single point]"
CCOc1cc(NC(=S)Nc2ccc(Cl)cc2)c(OCC)cc1NC(C)=O,,"inconclusive [inhibitor, single point]"
Cc1cccc(N2CN(Cc3ccco3)CNC2=S)c1,,"inconclusive [inhibitor, single point]"

Compound,"activity, negative = inhibition",Potency
CNC1=C(N(C(C)=O)c2ccc(Br)cc2)C(=O)c2ccccc2C1=O,,active: 12.6 µM
Cc1ccc(S(=O)(=O)NCC(=O)N2CCN(c3ccc(F)cc3)CC2)cc1,inactive: 5.71%,
CCc1ccc(C2=Nn3c(nnc3-c3cccs3)SC2)cc1,inactive: 2.43%,
Cc1ccc(C2CC(c3cccc(Br)c3)Nc3nnnn32)cc1 (stereo not drawn),inactive: -9.45% [at 0.365 µM],
O=CN/N=C/c1c(O)ccc2ccccc12,,active: 2.82 µM
O=C(O)c1ccccc1NS(=O)(=O)c1cccc(-n2sc3ccccc3c2=O)c1,,"inconclusive [inhibitor, partial curve]"
O=C(/C=C/c1ccccc1)c1ccc(O)cc1O,,"inconclusive [inhibitor, single point]"
Cn1c(SCC(=O)Nc2ncc(C(F)(F)F)cc2Cl)nnc1-c1ccc(Cl)cc1,,active: 11.2 µM
Cc1cccc2c(=O)c(C(=O)NCCc3ccccc3)c[nH]c12,,"inconclusive [activator, single point]"
C/C(=N\NC(=O)c1nn(C)c(C)c1Br)c1ccc(NC(=O)C2CCCC2)cc1,,"inconclusive [inhibitor, full curve, poor fit]"
O=C(c1ccc(C(F)(F)F)cc1)N1CCC(=O)N([C@H](COCc2ccc(C(F)(F)F)cc2)Cc2ccccc2)CC1,inactive: -9.44% [at 40.7 µM],
Cc1ccc2[nH]c(C(=O)NN=C3CCCCC3)c(-c3ccccc3)c2c1,,active: 10 µM
Cc1ccc(NC(=S)N/N=C2\CC(C)(C)Oc3ccc(O)cc32)cc1,,active: 5.01 µM
C/C(=N\NC(=S)Nc1cccc(C)c1)c1cc2ccccc2o1,,"inconclusive [inhibitor, single point]"
O=C(CCCc1c[nH]c2ccccc12)NCc1ccc2c(c1)OCO2,inactive: -1.42%,
S=C(NCc1ccc(Cl)c(Cl)c1)Nc1ccc2c(c1)OCO2,,"inconclusive [inhibitor, single point]"
COc1cccc(-c2nc(NC(C)(C)C)c3ccccc3n2)c1O,,"inconclusive [inhibitor, single point]"
CC(=O)OC[C@@H]1O[C@H](C/C=N\O[C@@H](C)CN2CCCCc3nc(C)c(C)cc32)C=C[C@@H]1OC(C)=O,inactive: -8.71% [at 10 µM],
S=C(NCc1ccccc1)Nc1ccc(Cl)cc1,,"inconclusive [inhibitor, single point]"
Cc1ccc(-c2nc(CSCC(=O)N3CCN(c4ccccn4)CC3)c(C)o2)cc1,,"inconclusive [inhibitor, single point]"
Cn1cc(C(=O)c2ccc(Cl)cc2Cl)cc1C(=O)N/N=C(\N)COc1ccc(F)cc1,,active: 2.51 µM
O=[N+]([O-])c1cc(CN2CCN(c3cccc(C(F)(F)F)c3)CC2)c2cccnc2c1O,,"inconclusive [inhibitor, partial curve, poor fit]"
Cc1ccc(C)n1-c1ccc(C(=O)NCc2ccncc2)cc1,inactive: -3.07%,
